Assay results: PubChem BioAssay (NCI)
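How tested: cells in 96-well plates exposed to compound for 48 hours at five concentrations. Abbreviation: GI50, concentration required for 50% inhibition of growth. TGI marks complete inhibition of growth.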

What follows are molecules tested on NCI-H322M lung (assay: NCI-60 cell line screen, 48 h).
For `O=c1ccc2ccc(S)cc2o1`, the TGI was > 100 µM. `N#CC1(c2ccc(NC(=O)c3cccnc3NCc3ccncc3)cc2)CCCC1` was tested, and the GI50 was 30.6 µM and the TGI was > 100 µM. `Cn1nc(-c2ccc(S(=O)(=O)/N=C(\NN)Nc3ccc(Cl)cc3)s2)cc1C(F)(F)F` was tested, and the TGI was 29.4 µM. Molecule `COc1ccc(OC)c(NCC(=O)n2nc(/C=C\c3ccc(O)c(OC)c3)cc2/C=C\c2ccc(O)c(OC)c2)c1` has a GI50 of 2.95 µM and a TGI of 13.9 µM.
